Measured values taken from PubChem BioAssay AID504339 (National Center for Advancing Translational Sciences (NCATS), 2011).
In all, about 390,000 compounds went through this assay and about 17,000 (4.4%) were called active. The shares of active, inactive and inconclusive entries below differ from those in the screen. Calls follow the shape of the dose curve; as a rule, active = well fitted inhibition curve with a large enough effect; inconclusive = small, poorly fitted or top-dose-only effect; inactive = no such curve, though single readings can be large or run the other way. Where the call is inconclusive, the potency comes from a doubtful curve fit.

The molecules below were run against Lysine-specific demethylase 4A (Homo sapiens) (UniProt O75164) (assay: qHTS Assay for Inhibitors of JMJD2A-Tudor Domain). Details: AlphaScreen JMJD2A-Tudor / H3K4me3 peptide binding; activity change, negative = inhibition: at 114 µM (top of the series).
% is scaled to controls: 0 for no effect and ±100 for the full control effect; potency is read from the fitted curve at half-maximal effect; tags tell the direction and shape of the fitted curve.
Also: nearly all actives have a fitted effect of over 50% in size.

Sequence of UniProt O75164 (O75164 whole entry, looked up, the tested form may be a part): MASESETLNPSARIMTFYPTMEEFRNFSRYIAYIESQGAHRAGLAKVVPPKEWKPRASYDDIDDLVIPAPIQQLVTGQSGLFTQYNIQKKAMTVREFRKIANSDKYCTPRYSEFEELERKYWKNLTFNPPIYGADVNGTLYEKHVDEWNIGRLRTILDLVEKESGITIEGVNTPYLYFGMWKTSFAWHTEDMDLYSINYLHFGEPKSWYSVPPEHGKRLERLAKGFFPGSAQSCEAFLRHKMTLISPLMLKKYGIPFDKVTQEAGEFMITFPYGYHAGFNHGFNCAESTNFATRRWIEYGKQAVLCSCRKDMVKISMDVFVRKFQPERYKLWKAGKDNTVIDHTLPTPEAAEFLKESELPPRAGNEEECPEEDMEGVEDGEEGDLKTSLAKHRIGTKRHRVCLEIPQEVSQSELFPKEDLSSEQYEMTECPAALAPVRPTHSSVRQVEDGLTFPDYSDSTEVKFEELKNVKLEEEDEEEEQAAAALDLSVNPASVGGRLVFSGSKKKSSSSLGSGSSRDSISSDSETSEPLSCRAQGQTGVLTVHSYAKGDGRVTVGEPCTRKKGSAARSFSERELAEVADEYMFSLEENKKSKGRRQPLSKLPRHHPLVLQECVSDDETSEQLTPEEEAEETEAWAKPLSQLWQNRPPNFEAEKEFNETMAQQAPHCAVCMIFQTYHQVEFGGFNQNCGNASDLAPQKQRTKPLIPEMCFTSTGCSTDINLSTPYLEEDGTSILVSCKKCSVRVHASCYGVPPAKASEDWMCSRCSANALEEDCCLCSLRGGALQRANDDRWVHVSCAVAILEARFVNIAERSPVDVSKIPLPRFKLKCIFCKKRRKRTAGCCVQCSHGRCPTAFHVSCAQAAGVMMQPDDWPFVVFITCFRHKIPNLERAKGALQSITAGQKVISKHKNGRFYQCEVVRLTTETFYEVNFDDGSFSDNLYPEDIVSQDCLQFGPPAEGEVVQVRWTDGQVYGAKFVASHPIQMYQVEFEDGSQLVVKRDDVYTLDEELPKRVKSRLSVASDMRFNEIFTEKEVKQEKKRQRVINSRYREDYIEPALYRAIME

| Compound | Potency | activity change, negative = inhibition |
| --- | --- | --- |
| Cc1cc(C)n(-c2nnc(N3CCN(c4ccccc4)CC3)nn2)n1 | active: 50.1 µM |  |
| Cc1nn(Cc2cccc(F)c2)c(C)c1NC(=O)c1c(Cl)cnn1C |  | inactive: -11.4% |
| O=C(Nc1ccc(CN2CCOCC2)cc1)c1ccc(-c2cccc(Cl)c2)o1 |  | inactive: -34.1% |
| CN1/C(=C\C(=O)COc2ccc3c(c2)OCO3)C(C)(C)c2ccccc21 | inconclusive: 56.2 µM [inhibitor, partial curve] |  |
| Cc1oncc1C(=O)Nc1cccc(C#N)c1 |  | inactive: 2.04% |
| C#CCOCCOCCOCCNc1nc(N2CCN(C(=O)C(Cc3cc4ccccc4[nH]3)n3cc(C(N)C(C)CC)nn3)CC2)nc(N2CCN(C(=O)C(Cc3cc4ccccc4[nH]3)n3cc(C(N)C(C)CC)nn3)CC2)n1 (configuration not stated) | active: 28.2 µM |  |
| Cc1ccc(CNC(=O)c2cnn3c(C)c(Cc4c(F)cccc4Cl)c(C)nc23)cc1 |  | inactive: -8.87% |
| CN(C)S(=O)(=O)c1cc(NC(=O)CN2CCCc3ccccc32)ccc1Cl | inconclusive: 50.1 µM [inhibitor, partial curve, poor fit] |  |
| Cc1cccc(-n2c(CNC(=O)c3ccc(S(=O)(=O)N(C)C)cc3)nnc2SCC(=O)Nc2ccc(F)cc2)c1 | inconclusive: 100 µM [inhibitor, partial curve] |  |
| CCOc1ccc(CCNC(=O)c2ccc(C)c(-n3c(C)nc4cccnc43)c2)cc1OCC |  | inactive: -4.14% |
| Cc1ccc2sc(N(CCCN(C)C)C(=O)c3ccc(S(=O)(=O)N(C)Cc4ccccc4)cc3)nc2c1C | inconclusive: 11.2 µM [inhibitor, full curve] |  |
| Cc1ccc(S(=O)(=O)Nc2ccc(=O)n(Cc3ccc(Cl)c(Cl)c3)c2)cc1 | inconclusive: 56.2 µM [inhibitor, partial curve] |  |
| CCN(c1ccccc1)S(=O)(=O)c1nnc(NC(=O)C(C)Oc2ccccc2)s1 (configuration not stated) | inconclusive: 3.16 µM [inhibitor, full curve] |  |
| C=CCn1c(-c2cc(-c3ccccc3)sc2N)n[nH]c1=S |  | inactive: -28.3% |
| COc1ccc(C2c3c(-c4cc(Cl)c(C)cc4O)n[nH]c3C(=O)N2Cc2cccnc2)cc1OC (configuration not stated) | inconclusive: 56.2 µM [inhibitor, partial curve] |  |
| O=C1CN(C(=O)c2ccc(S(=O)(=O)N3CCCC3)cc2)C(c2ccc(F)cc2)c2cc(F)ccc2N1 (configuration not stated) |  | inactive: -16.4% |
| CN1CCN(c2ccc(NC(=O)c3ccc4c(c3)[nH]c(=O)n4Cc3ccc(F)cc3)cc2)CC1 | inconclusive: 39.8 µM [inhibitor, partial curve] |  |
| O=C(NC1CCCCC1)c1sc(=S)n2c1[nH]c(=O)c1ccccc12 | active: 56.2 µM |  |
| CCc1ccc(C(=O)NNc2ccc(S(N)(=O)=O)cc2)cc1 |  | inactive: -7.29% |
| COc1ccc(-c2nn(-c3ccccc3)cc2/C=N/Nc2ccc(Cl)c(C(=O)O)c2)cc1OC |  | inactive: -27.7% |
| O=c1[nH]c(C(F)(F)F)nc2c1nnn2Cc1ccccc1F | inconclusive: 89.1 µM [inhibitor, single point] |  |
| COc1cc2c(cc1OC)CN(C(=S)Nc1ccc(Cl)cc1)CC2 |  | inactive: -13.1% |
| O=C(Nc1ccc(S(=O)(=O)Nc2ncccn2)cc1)c1cccnc1 |  | inactive: 2.08% |
| CCN1C(=O)[C@H]2[C@H]3CN=C(SCc4ccccc4)N3[C@@](C)(C(=O)OC)[C@H]2C1=O | inconclusive: 79.4 µM [inhibitor, partial curve] |  |

| Compound | Potency | activity change, negative = inhibition |
| --- | --- | --- |
| CC1(C)CC(=O)C2=C(C1)Nc1[nH]c(=S)[nH]c(=O)c1C2c1ccccc1 (configuration not stated) | active: 44.7 µM |  |
| Cc1ccccc1Nc1c(-c2ccccc2O)nc2sccn12 | inconclusive: 11.2 µM [inhibitor, full curve] |  |
| COc1ccccc1Nc1nc(C)nc2c1oc1ccccc12 | inconclusive: 50.1 µM [inhibitor, partial curve] |  |
| O=c1cc2oc3cc(O)c(O)cc3c(-c3ccccc3[N+](=O)[O-])c-2cc1O | active: 0.708 µM |  |
| COc1cc(C(=O)Nc2ccc(N(C)C)cc2)cc(OC)c1OC | inconclusive: 31.6 µM [inhibitor, partial curve] |  |
| COc1ccc(C(=O)Nc2ccccc2C(=O)N2CCOCC2)cc1OC |  | inactive: -10.6% |
| O=C1COc2ccc(C(=O)COC(=O)/C=C/c3ccco3)cc2N1 | inconclusive: 63.1 µM [inhibitor, partial curve, poor fit] |  |
| N#Cc1c(-c2ccccc2F)cc(C2CC2)nc1SCC(=O)c1cccs1 |  | inactive: -3.52% |
| O=C(OCN1C(=O)c2ccccc2C1=O)c1cc(S(=O)(=O)N2CCOCC2)ccc1F |  | inactive: -12.4% |
| CC(=O)Nc1ccc(S(=O)(=O)NCC(CCC(=O)O)C(F)(F)F)cc1 (configuration not stated) | active: 15.8 µM |  |
| COc1ccc(NC(=O)c2ccccn2)cc1S(=O)(=O)N1CCOCC1 | inconclusive: 31.6 µM [inhibitor, full curve, poor fit] |  |
| O=C(Nc1c2c(nn1-c1ccccc1)CS(=O)(=O)C2)c1cc2ccccc2o1 | inconclusive: 31.6 µM [inhibitor, partial curve] |  |
| CCOC(=O)C1=C(C)N=c2sc(=C(C)C)c(=O)n2C1c1ccc(N(C)C)cc1 (configuration not stated) | active: 89.1 µM |  |
| COc1ccc(-c2c(C)nn3c(C(F)(F)F)cc(C)nc23)cc1OC | inconclusive: 79.4 µM [inhibitor, partial curve] |  |
| O=C(COC(=O)c1ccc(O)cc1)Nc1cc(C(F)(F)F)ccc1Cl |  | inactive: 4.11% |
| Cc1nc(NC(=O)C(Cl)Cl)sc1C(=O)N(C)C | active: 79.4 µM |  |
| COc1ccc(N=C2NC(=O)/C(=C\C=C\c3ccco3)S2)cc1 | active: 20 µM |  |
| N#Cc1ccc(OCC(=O)Nc2ccc(N3CCCC3)cc2)cc1 |  | inactive: -31.3% |
| COc1ccc(-c2nc(CSCC(=O)N3CCN(c4cccc(C)c4)C(C)C3)c(C)o2)cc1OC (configuration not stated) | active: 56.2 µM |  |
| Cc1ccc(C)c(NC(=S)NC(NC(=O)Cc2ccccc2)C(Cl)(Cl)Cl)c1 (configuration not stated) |  | inactive: -8.97% |
| Cc1ccc(-n2c(SCc3nc(-c4ccc(Cl)cc4)no3)nnc2-c2ccncc2)cc1 | inconclusive: 14.1 µM [inhibitor, full curve] |  |
| COc1cc(OC)cc(-c2c(C#Cc3ccsc3)c3cc(-c4ccc5c(c4)OCO5)ccc3n2C)c1 |  | inactive: -10.3% |
| Cc1cccc(/C(N)=N/OC(=O)C23CC4CC(CC(C4)C2)C3)c1 |  | inactive: 45.7% |
